Measurements published in the supplement of paper PMC10126150.
Values marked as one replicate rest on one cluster of the flow cell; about a third of the high ones do not repeat.

System: ATP
Experiment: switch fluorescence ratio, 500 uM ATP over buffer (Cy3 cluster intensity, sum of 5 cycles each) (fold (ratio)); higher = stronger signal-on switching upon ATP binding; sequences stand for … in TCGTCGGCAGCGTCAGATGTGTATAAGAGACAGTTTTTTTTTTTTTTTTTTTTTTTTT…TC
Conditions: aptamer strand: ATP DNA aptamer (quencher-CACCTGGGGGAGTATTGCGGAGGAAGG + anchor), 100 nM annealed; ATP concentration: 500 uM; one replicate
Outline: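 For every switch-domain sequence, the fluorescence ratio is the mean of per-cluster values, each being summed target-cycle Cy3 intensity over summed buffer-cycle Cy3 intensity. Clusters outside 100-1000 RFU were excluded. On a modified Illumina MiSeq flow-cell, the Cy3-labelled switching-strand clusters were annealed to 100 nM quencher-labelled ATP aptamer, imaged in selection buffer and then after 15 min with 500 uM ATP at 22 °C. Five such cycles were run, with NaOH stripping and re-annealing between them.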
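Note: ATP exposure 15 min at 22 °C before imaging.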

GCTAAACGAA was tested, and the switch fluorescence ratio was 1.02.

For TCTGCGCTGA, the switch fluorescence ratio was 1.06.

In the case of GTATAGTTGT, the switch fluorescence ratio is reported as 0.973.

CAAAGTGTAC was tested, and the switch fluorescence ratio was 2.06.

With TAACATACTT the switch fluorescence ratio was 1.3.

Sequence AAGATTCGAG has a switch fluorescence ratio of 0.996.

For TTTCTTGACT, the switch fluorescence ratio was 1.01.

GTAACCGGGG was tested, and the switch fluorescence ratio was 1.02.

TGCCCTGTAA showed a switch fluorescence ratio of 1.

Sequence GCATCTATTC has a switch fluorescence ratio of 1.01.

In the case of GACTAACAGT, the switch fluorescence ratio is reported as 1.04.

CATCAAGTTT showed a switch fluorescence ratio of 0.933.

For ACTCTATCAT, the switch fluorescence ratio was 1.06.

For GATCTGATAG, the switch fluorescence ratio was 0.995.

Work on CATAGCTGT yielded a switch fluorescence ratio of 1.01.

Work on TGGAAGGGCG yielded a switch fluorescence ratio of 0.961.

In the case of TGAGCTCGT, the switch fluorescence ratio is reported as 1.04.

TAGGGGAAAC was tested, and the switch fluorescence ratio was 0.957.

TGTACGCAGG was tested, and the switch fluorescence ratio was 1.11.

GCATGCCGAA showed a switch fluorescence ratio of 0.986.

Work on TACGTACTGT yielded a switch fluorescence ratio of 1.51.

Work on CAACGCGACA yielded a switch fluorescence ratio of 1.65.

In the case of ATAGTTTATA, the switch fluorescence ratio is reported as 0.986.

In the case of CTGACTATCT, the switch fluorescence ratio is reported as 0.996.

In the case of AAAGTGTACT, the switch fluorescence ratio is reported as 0.975.

With AATGAGGTCT the switch fluorescence ratio was 0.987.

Sequence ACAGAGACAC has a switch fluorescence ratio of 1.06.

TGCCGCTGT was tested, and the switch fluorescence ratio was 1.05.

ACATTCAAAT gave a switch fluorescence ratio of 1.15.

In the case of ACTTATGGTG, the switch fluorescence ratio is reported as 0.975.

GTTAGAGAAT gave a switch fluorescence ratio of 0.975.

With TAGCTGCCTG the switch fluorescence ratio was 1.09.

For TCTTCTGATA, the switch fluorescence ratio was 1.02.

GCGTTAGATA was tested, and the switch fluorescence ratio was 1.05.

AGTCTGATT gave a switch fluorescence ratio of 0.983.

CATGGTCGAT gave a switch fluorescence ratio of 1.01.

For CCGGGGGGT, the switch fluorescence ratio was 1.03.

With TGCGCTCTGC the switch fluorescence ratio was 1.12.

TACATACTGT gave a switch fluorescence ratio of 1.4.

For AAAAGTCGAG, the switch fluorescence ratio was 0.988.

TGGGTTCTCT showed a switch fluorescence ratio of 1.01.

With AAGATCGAGG the switch fluorescence ratio was 1.03.

GTCAATGAAA gave a switch fluorescence ratio of 0.988.

ACTTTGGGAA showed a switch fluorescence ratio of 1.02.

In the case of CTTAGTGATA, the switch fluorescence ratio is reported as 0.985.

AATAGGCGTC showed a switch fluorescence ratio of 0.976.

In the case of AAGATGCCGG, the switch fluorescence ratio is reported as 0.961.

TCCTGGAAGG gave a switch fluorescence ratio of 1.

For ACATTTAGTT, the switch fluorescence ratio was 1.

In the case of TCATTAAAGA, the switch fluorescence ratio is reported as 0.959.

Sequence TTTGTCTCAG has a switch fluorescence ratio of 1.

For ATTTAATGGT, the switch fluorescence ratio was 0.956.

Sequence AGCTCTCAGT has a switch fluorescence ratio of 0.995.

Sequence CATATGTGTG has a switch fluorescence ratio of 0.968.

Work on CGGTTACGAA yielded a switch fluorescence ratio of 1.02.

AACATGGGCA was tested, and the switch fluorescence ratio was 0.975.

Sequence GCGAAACTAG has a switch fluorescence ratio of 0.939.

For ATAGTGCACC, the switch fluorescence ratio was 0.973.

For AAAGACAAGC, the switch fluorescence ratio was 1.

Work on AAGCCTGGTA yielded a switch fluorescence ratio of 0.985.

TAAATGCTCG was tested, and the switch fluorescence ratio was 0.941.

TTAATATATT gave a switch fluorescence ratio of 0.98.

GACTGAACAT showed a switch fluorescence ratio of 1.14.

For CGGTCTCAGC, the switch fluorescence ratio was 0.991.

GATCCGGGGC gave a switch fluorescence ratio of 0.999.

CCGAGCCGTC was tested, and the switch fluorescence ratio was 1.06.

Sequence CGCAAAACAA has a switch fluorescence ratio of 1.11.

Sequence CGATATGCAT has a switch fluorescence ratio of 1.03.

Sequence TTTTAAGGGC has a switch fluorescence ratio of 1.01.

CCAATGTGTC was tested, and the switch fluorescence ratio was 1.08.

In the case of TGTCGACCGG, the switch fluorescence ratio is reported as 0.952.

ATATGGATCT gave a switch fluorescence ratio of 0.937.

GCTAGGCCGG showed a switch fluorescence ratio of 1.02.

With CTTCTTACTA the switch fluorescence ratio was 1.06.

Work on GACACCTAAT yielded a switch fluorescence ratio of 1.41.

For ACACAACAT, the switch fluorescence ratio was 1.19.

TATGTCAAT gave a switch fluorescence ratio of 0.982.

TTGGTGCATA was tested, and the switch fluorescence ratio was 1.01.

With AACAAGAGAG the switch fluorescence ratio was 1.04.

Work on GAGACGGCCC yielded a switch fluorescence ratio of 1.05.

Work on AACTTCCGGC yielded a switch fluorescence ratio of 1.76.

GCATACCTTG gave a switch fluorescence ratio of 1.01.

With TCTGGACCCA the switch fluorescence ratio was 1.03.

Work on GGGCCTGTTC yielded a switch fluorescence ratio of 0.942.

GAGCCGAAGA gave a switch fluorescence ratio of 0.99.

Sequence AGGCCAACCG has a switch fluorescence ratio of 1.01.

GCTTAATGGT gave a switch fluorescence ratio of 0.987.

With GTAATTTGAG the switch fluorescence ratio was 0.985.

TGGTGTAAGC was tested, and the switch fluorescence ratio was 1.03.

CCCGGGCTGC was tested, and the switch fluorescence ratio was 1.15.

For CGGCGGCAGT, the switch fluorescence ratio was 1.09.

TTCTGTGATG showed a switch fluorescence ratio of 0.989.

GACTACTTTG showed a switch fluorescence ratio of 0.987.

In the case of AAGGAGAAAT, the switch fluorescence ratio is reported as 1.03.

In the case of ATGAGATAGC, the switch fluorescence ratio is reported as 1.04.

In the case of AGGGATTTAC, the switch fluorescence ratio is reported as 1.

With CTCTGTTGGG the switch fluorescence ratio was 1.01.

Sequence TGGGGATCAA has a switch fluorescence ratio of 1.02.

CGCGTATGCC showed a switch fluorescence ratio of 1.01.

AGACTATCGA gave a switch fluorescence ratio of 1.

Work on TACACCCAGA yielded a switch fluorescence ratio of 1.24.

For AAGTTACTTC, the switch fluorescence ratio was 1.03.

Sequence CGCAGGGTCG has a switch fluorescence ratio of 1.

For CACTAGGAGA, the switch fluorescence ratio was 0.996.

CTGAGGCGAG was tested, and the switch fluorescence ratio was 1.12.

TCACCGGGTA was tested, and the switch fluorescence ratio was 1.58.

In the case of GGGCCGTATT, the switch fluorescence ratio is reported as 0.985.

Sequence TCATATCATG has a switch fluorescence ratio of 0.973.

GGTGCTACAG gave a switch fluorescence ratio of 1.03.

AGGCAAGCTG was tested, and the switch fluorescence ratio was 1.02.

With CTAGTAGCTG the switch fluorescence ratio was 0.962.

Sequence CCGGAGCCGT has a switch fluorescence ratio of 1.28.

Sequence CCTATACAGG has a switch fluorescence ratio of 1.12.

GGAAACATAA showed a switch fluorescence ratio of 0.987.

In the case of ACGCAAAAGA, the switch fluorescence ratio is reported as 1.19.

GTGCCCGGGA gave a switch fluorescence ratio of 1.02.

For AACTCACTTC, the switch fluorescence ratio was 1.13.

Work on AAACGACGGG yielded a switch fluorescence ratio of 1.06.

ACAAGGTAAC was tested, and the switch fluorescence ratio was 0.99.

Sequence AAAAACTTCT has a switch fluorescence ratio of 1.08.

GGGATCGTAG gave a switch fluorescence ratio of 0.998.

For CCACTATTGC, the switch fluorescence ratio was 1.18.

Work on CGAATATGTT yielded a switch fluorescence ratio of 1.02.

AAACGTGTGC gave a switch fluorescence ratio of 1.03.

With TTCGCCCTTG the switch fluorescence ratio was 1.01.

Work on TATTCAAATT yielded a switch fluorescence ratio of 1.06.

For AGAGTAACGT, the switch fluorescence ratio was 0.985.

Work on TGCTAAGTCC yielded a switch fluorescence ratio of 1.23.

With TCCTGTTGTA the switch fluorescence ratio was 0.976.

In the case of TAACTTGAGG, the switch fluorescence ratio is reported as 0.979.

TCAGATCGGT was tested, and the switch fluorescence ratio was 0.987.

With GCAGACCTGG the switch fluorescence ratio was 1.03.

Work on TGATCGCTGC yielded a switch fluorescence ratio of 1.49.

Work on TGGATGCTTA yielded a switch fluorescence ratio of 0.974.

Sequence AGTGAGCGGG has a switch fluorescence ratio of 0.979.

In the case of TACAATACAG, the switch fluorescence ratio is reported as 1.13.

TATAGGCCGA was tested, and the switch fluorescence ratio was 0.919.

CGTTCGTCAT was tested, and the switch fluorescence ratio was 1.06.

Sequence GTGTGCCATG has a switch fluorescence ratio of 0.972.

In the case of GTCTCAGAAA, the switch fluorescence ratio is reported as 1.01.

Sequence TGCGACAAGA has a switch fluorescence ratio of 1.38.

GGTACGTCTC gave a switch fluorescence ratio of 1.01.

With TGGGGTGCGT the switch fluorescence ratio was 1.

With TTATCAACTA the switch fluorescence ratio was 0.954.

GTCGGCTTAT was tested, and the switch fluorescence ratio was 1.11.

With GACCACTTAG the switch fluorescence ratio was 1.05.

Work on CGAACCTCGT yielded a switch fluorescence ratio of 1.06.

GCAAGCCACG was tested, and the switch fluorescence ratio was 1.1.

GCGGCCCCGG showed a switch fluorescence ratio of 1.17.

CCTACTTTGT gave a switch fluorescence ratio of 0.985.

TCTGGTACCG was tested, and the switch fluorescence ratio was 1.01.

For CTCCATGACC, the switch fluorescence ratio was 1.18.

TAAGTATCGT was tested, and the switch fluorescence ratio was 0.97.

CTAACTGTTT gave a switch fluorescence ratio of 0.962.

CCTGCGTGTC showed a switch fluorescence ratio of 1.76.

Work on GAACCATTCG yielded a switch fluorescence ratio of 1.05.

With GGGCGTGGGT the switch fluorescence ratio was 1.04.
